Target: T1, His6-SHIP1 Y190F (UniProt Q9ES52 1-1191, Y190F)
T1 sequence (looked up): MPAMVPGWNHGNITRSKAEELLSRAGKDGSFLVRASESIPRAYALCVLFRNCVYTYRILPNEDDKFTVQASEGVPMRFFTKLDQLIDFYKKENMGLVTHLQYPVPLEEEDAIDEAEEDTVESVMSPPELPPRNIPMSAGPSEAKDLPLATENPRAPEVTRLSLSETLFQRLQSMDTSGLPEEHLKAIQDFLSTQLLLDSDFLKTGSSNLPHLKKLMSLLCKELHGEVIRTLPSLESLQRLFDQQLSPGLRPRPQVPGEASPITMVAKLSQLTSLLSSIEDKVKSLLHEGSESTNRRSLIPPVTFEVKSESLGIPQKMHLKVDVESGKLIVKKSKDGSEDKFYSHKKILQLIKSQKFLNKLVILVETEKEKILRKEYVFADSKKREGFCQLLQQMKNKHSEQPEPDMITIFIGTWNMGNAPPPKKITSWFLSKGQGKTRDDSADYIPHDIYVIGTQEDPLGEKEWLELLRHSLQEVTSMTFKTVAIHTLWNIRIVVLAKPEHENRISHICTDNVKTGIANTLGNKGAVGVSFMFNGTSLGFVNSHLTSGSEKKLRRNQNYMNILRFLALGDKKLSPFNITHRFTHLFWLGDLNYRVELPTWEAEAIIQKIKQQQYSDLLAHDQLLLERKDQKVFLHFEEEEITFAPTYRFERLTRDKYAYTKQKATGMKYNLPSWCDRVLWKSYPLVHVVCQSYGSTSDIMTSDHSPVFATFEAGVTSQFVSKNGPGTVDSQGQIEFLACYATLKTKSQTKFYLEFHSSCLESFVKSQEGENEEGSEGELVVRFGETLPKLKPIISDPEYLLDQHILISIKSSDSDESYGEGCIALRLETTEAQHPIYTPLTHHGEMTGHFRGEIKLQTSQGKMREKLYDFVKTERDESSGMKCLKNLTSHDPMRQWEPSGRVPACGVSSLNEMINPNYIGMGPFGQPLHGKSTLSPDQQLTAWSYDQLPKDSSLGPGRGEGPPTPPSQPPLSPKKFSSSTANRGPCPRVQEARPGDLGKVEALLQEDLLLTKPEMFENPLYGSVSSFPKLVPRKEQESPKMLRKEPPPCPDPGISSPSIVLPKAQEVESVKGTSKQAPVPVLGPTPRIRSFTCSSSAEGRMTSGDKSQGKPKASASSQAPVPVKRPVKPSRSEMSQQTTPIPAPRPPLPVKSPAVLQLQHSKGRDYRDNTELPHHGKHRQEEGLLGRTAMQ
Assay: pull-down

B1: STAT3 (natural protein)
chain: not shown
  fold reduction of the interaction with STAT3 against wild-type SHIP1: 2 fold

Source: PMC7452241 (iScience, 2020)
